Laboratory results: ChEMBL document CHEMBL4888484, “Replenishing the malaria drug discovery pipeline: Screening and hit evaluation of the MMV Hit Generation Library 1 (HGL1) against asexual blood stage Plasmodium falciparum ,using a nano luciferase reporter read-out” (2022)
In all, about 150,000 compounds went through this assay and about 540 (0.36%) showed an effect of 50% or more. The list shows a part of the results.

These molecules were tested on Plasmodium falciparum (assay: Primary screen in NF54 nanoGlo assay, in single point, at 2uM, 72h; a lower Z score goes with more inhibition). Conditions: timepoint 72 hour.
Assay type: functional, Erythrocyte

Row | SMILES | % Inhibition | Z score
1 | CN1CCN(S(=O)(=O)N2CCc3[nH]c(-c4ccccc4)nc3C2)CC1 | -4% | 0.34
2 | COc1ccc(CCNC(=O)c2ccc(Cn3c(=O)c4ccccc4n(CC(=O)Nc4ccccc4C)c3=O)cc2)cc1OC | -14% | 1.59
3 | O=C(Cc1ccc2c(c1)OCO2)N1CCC[C@@H]1Cn1nccn1 | 0% | 0.06
4 | C=CCN(c1nc2nc(C)cc(C)n2n1)S(=O)(=O)c1ccc(Cl)cc1 | -6% | 0.57
5 | Cc1cnc(N[C@@H](C)c2cncc(F)c2)nc1C | -8% | 1.04
6 | Cc1noc(C)c1CC(=O)N1CC[C@H](Oc2cncc(N(C)C)n2)C1 | 2% | -0.27
7 | O=C1CC[C@H](NC(=O)c2coc(C3CCCC3)n2)C(=O)N1 | 9% | -1.04
8 | C[C@H](NC(=O)Nc1ccnn1C)C1CCOCC1 | -2% | 0.25
9 | O=C(N[C@H]1Cc2ccc(Cl)cc2C1)c1cc(-n2ccnc2)ccn1 | -4% | 0.51
10 | CC(COc1ccc(F)c(F)c1)N[C@@H]1C=C[C@H](CO)C1 (stereo not given in full) | -10% | 1.22
11 | CC[C@@H](C(=O)O)N1CCN(C2CCCC2)CC1 | -7% | 0.9
12 | COc1ccc2oc(C)c(-c3nc(C4CC4)no3)c2c1 | -5% | 0.59
13 | COc1ncccc1C(=O)OCc1nnc(C2CC2)o1 | -11% | 1.09
14 | O=C([C@@H]1CCCO1)N1CCc2ccc(F)c(Br)c2C1 | -1% | 0.15
15 | CCc1nnc(-c2ccc(=O)n(CC(=O)N3CCN(c4ccccc4F)CC3)c2)o1 | -2% | 0.41
16 | c1cncc(-c2n[nH]c(CCn3cc(-c4ncc[nH]4)nn3)n2)c1 | -2% | 0.44
17 | O=C(CNC(=O)c1ccncc1)Nc1ccc2[nH]c(=O)[nH]c2c1 | -19% | 2.08
18 | COC1CCCCC1OC(=O)CN1CCC(C)CC1 (stereo not given) | -6% | 1.15
19 | CCCCCN(Cc1nc(C2CC2)n[nH]1)C(C)C | 2% | -0.19
20 | Cc1cn2nc(C(=O)NCC(C)(C)C3CCCCC3)cc2c(=O)[nH]1 | 1% | -0.11

Row | SMILES | % Inhibition | Z score
21 | O=C(NCc1ccc(F)cc1)[C@@]1(CCO)CCN(c2ncccn2)C1 | -13% | 2.37
22 | CCCc1nc(NCc2cc(O)ncn2)c2cnn(C)c2n1 | -11% | 1.87
23 | O=C(Nc1nc2c(s1)CCCC2)c1ccncc1 | -1% | 0.16
24 | COCCCN1C(=O)c2ccc(C(=O)Nc3c(-c4ccccc4)nc4c(C)cccn34)cc2C1=O | -14% | 1.68
25 | Cc1ccc(O[C@H]2CCOC[C@H]2NC(=O)c2ocnc2C)cn1 | -8% | 1.51
26 | Cc1cc(C(=O)N2CCOC[C@@H](CO)C2)sc1-c1ccccc1 | -9% | 1.2
27 | Cc1ccc(-c2cc(C(F)(F)F)c3c(-c4ccccc4)nn(Cc4ccccc4)c3n2)cc1 | 3% | -0.35
28 | C[C@@H](c1ccc(-c2ncc(C(=O)O)s2)cc1)N1CCOCC1 | -3% | 0.41
29 | COCCCN(Cc1c(-c2ccccc2)noc1N(C)C1CCCCC1)C(=O)c1cccc(OC)c1 | 3% | -0.36
30 | COc1ccccc1C1C(C(=O)Nc2ccccc2)=C(C)NC(C)=C1C(=O)Nc1ccccc1 | -11% | 1.57
31 | CC(C)C(=O)NCc1ccc(-c2ncnn2Cc2ccc(F)cc2)cc1 | 1% | -0.13
32 | Cc1ccc(C)c(CN2CCC(N3CCC[C@H](C(=O)NCc4ccccn4)C3)CC2)c1 | 5% | -0.71
33 | OCCc1ccccc1-n1ccnc1-c1nc2ccccc2[nH]1 | -15% | 1.28
34 | Cc1nc(C)c(CC(=O)NCCc2nncn2C(C)C)s1 | -10% | 0.97
35 | N#Cc1ccncc1C(=O)N1CC2C3CCC(C3)C2C1 (stereo not given) | 25% | -2.88
36 | CCOCCC(=O)N1CC[C@]23C(=O)N(CC(=O)N(C)CCCOc4cccc(c4)[C@H]12)c1ccccc13 | -1% | 0.13
37 | CC(C)(C)c1ccc(C(C)(C)C)c(NC(=O)N[C@H]2CS(=O)(=O)C[C@@H]2O)c1 | 11% | -1.54
38 | Cc1nn(C)c(C)c1OCCCS(C)(=O)=O | -2% | 0.21
39 | Cc1ccnc(-c2noc([C@@H]3CCC(C)(C)O3)n2)n1 | -6% | 1.17
40 | COc1cc(Br)c(F)cc1S(=O)(=O)N(C)c1cccc2cccnc12 | -5% | 0.84
